Among the data in PubChem BioAssay AID1745853 (National Center for Advancing Translational Sciences (NCATS), 2022) are activity change, negative = inhibition values, retold here.

What all share (test): Primary Screen for Target Class Profiling of Small Molecule Inhibitors of Methyltransferases
Experiment [1] concerns the target Glycine N-methyltransferase (Homo sapiens) (UniProt Q14749). The following applies: purified enzyme, MTase-Glo SAH luminescence; measured here: GNMT inhibition; at 40 µM; stronger effect = lower value. A digest of the protocol:
(§1)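 Each enzyme was reacted with SAM and its substrate, with compounds tested once at 40 uM; SAH formed was read by MTase-Glo luminescence.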

Experiment [2] concerns the target Guanidinoacetate N-methyltransferase (Homo sapiens) (UniProt Q14353). The following applies: purified enzyme, MTase-Glo SAH luminescence; measured here: GAMT inhibition; at 40 µM; stronger effect = lower value. A digest of the protocol:
as §1

Experiment [3] concerns the target Histamine N-methyltransferase (Homo sapiens) (UniProt P50135). The settings on record: purified enzyme, MTase-Glo SAH luminescence; measured here: HNMT inhibition; at 40 µM; stronger effect = lower value. A digest of the protocol: as §1
The target of experiment [4] is Nicotinamide N-methyltransferase (Homo sapiens) (UniProt P40261). The settings on record: purified enzyme, MTase-Glo SAH luminescence; measured here: NNMT inhibition; at 40 µM; stronger effect = lower value. A digest of the protocol: as §1
In experiment [5] the target is Phenylethanolamine N-methyltransferase (Homo sapiens) (UniProt P11086). The following applies: purified enzyme, MTase-Glo SAH luminescence; measured here: PNMT inhibition; at 40 µM; stronger effect = lower value. The essentials:
as §1

Some of the results follow. Shown are side measurements of this screen, not its main read-out; they come without a call.
% is set by controls: 0 for no effect and ±100 for the full control effect.

With `CCOC(=O)c1cc2n(n1)CC(C)(C(=O)NC1CCCC1)N(c1ccc(CC)cc1)C2=O` (stereo not given), the activity change, negative = inhibition in experiment [1] is -1.69%; in experiment [2], 0.907%; in experiment [3], -1.39%; in experiment [4], -1.24%; in experiment [5], -1.41%.
Turning to `CCc1cc2c(cc3n2CC(C(=O)NC2CCCCC2)(c2ccccc2)N(Cc2ccc(Cl)cc2)C3=O)s1` (stereo not given), the activity change, negative = inhibition in experiment [1] was -0.769%; in experiment [2] it was 2.59%; in experiment [3], 5.05%; in experiment [4], 0.873%; in experiment [5] it was -2%.
With `Cc1cc(C)cc(N2C(=O)c3cc4sccc4n3CC2(C)C(=O)NC2CCC(C)CC2)c1` (stereo not given), the activity change, negative = inhibition was -6.56% in experiment [1]; 4.06% in experiment [2]; -6.28% in experiment [3]; 0.135% in experiment [4]; -6.13% in experiment [5].
Regarding `CCCC(=O)C1CCN(c2ncnc3c2CN(C(=O)c2ccc(-c4ccccc4)cc2)CC3)CC1`, the activity change, negative = inhibition in experiment [1] was -16.9%; in experiment [2] it was 6%; in experiment [3], 6.05%; in experiment [4], -39.5%; in experiment [5], 0.256%.
The matching figures for `COCCn1nc2n(c1=O)CCC1(CC2)CCN(C(=O)CC(C)(C)C)CC1`: -2.13%, -0.181%, -1.9%, -0.704% and -1.17%.
Turning to `CCN1C(=O)c2c(C(=O)NCCc3ccco3)ncn2CC1(C)C(=O)NC1CCCC1` (stereo not given), the activity change, negative = inhibition in experiment [1] was -5.86%; in experiment [2], 4.58%; in experiment [3], 3.49%; in experiment [4] it was 5.13%; in experiment [5] it was 3.98%.
With `CCCn1c(=O)c2ccc(Cl)cc2n2c(=O)n(CC(=O)Nc3ccc(Cl)cc3)nc12`, the activity change, negative = inhibition in experiment [1] is -0.88%; in experiment [2], 1.32%; in experiment [3], -0.635%; in experiment [4] it was -7.26%; in experiment [5] it was -2.34%.
Taken in the same sequence, the figures for `O=C(O)c1cc(O)c2cccc(O)c2c1O[C@@H]1O[C@H](CO)[C@@H](O)[C@H](O)[C@H]1O` were -31%, -14%, 4.09%, -24.3% and -33.4%.
`Cc1ccc(Cl)cc1NC(=O)Cn1nc2n(Cc3ccc(F)cc3)c(=O)c3ccccc3n2c1=O`: the activity change, negative = inhibition was 1.59% in experiment [1]; 0% in experiment [2]; 7.86% in experiment [3]; -2.93% in experiment [4]; 0.722% in experiment [5].
For `COc1ccc(CNC(=O)N2CCCCC2c2nc(-c3cnccn3)n[nH]2)cc1` (stereo not given), the activity change, negative = inhibition was -0.865% in experiment [1]; -0.591% in experiment [2]; -0.723% in experiment [3]; -1.54% in experiment [4]; -1.69% in experiment [5].
For the compound `COc1ccc(C(C)NC(=O)c2c(C)sc3ccn(C)c(=O)c23)cc1` (stereo not given), the activity change, negative = inhibition in experiment [1] is -3.82%; in experiment [2] it was -0.663%; in experiment [3], 0.685%; in experiment [4], 1.98%; in experiment [5], 12.8%.
`N#CC(CCCN1CCN(/N=C/c2cccnc2)CC1)(c1ccccc1)c1ccccc1`: the activity change, negative = inhibition in experiment [1] is 6.73%; in experiment [2], -1.42%; in experiment [3], 4.54%; in experiment [4] it was -29.1%; in experiment [5] it was -9.74%.
The matching figures for `Cc1ccc(Cn2c(=O)c3ccccc3n3c(=O)n(CC(=O)c4ccc(C)cc4C)nc23)cc1`: 4.58%, 1.18%, 6.44%, 4.53% and 2.51%.
`C[C@]12C=CC(=O)C=C1CC[C@H]1[C@@H]3C[C@@H](O)[C@](O)(C(=O)CO)[C@@]3(C)C[C@H](O)[C@@]12F`: the activity change, negative = inhibition in experiment [1] was -3.56%; in experiment [2], 6.18%; in experiment [3], -1.35%; in experiment [4] it was -2.48%; in experiment [5], 7.69%.
For `Cc1ccc(C)c(N2CCN(CCN3C(=O)c4ccc(-c5ccco5)n4CC3(C)C(=O)NC3CCCC3)CC2)c1` (stereo not given), the activity change, negative = inhibition is -5.09% in experiment [1]; 3.78% in experiment [2]; -2.2% in experiment [3]; -2.52% in experiment [4]; -3.51% in experiment [5].
For `O=C1CC2CCCC(C1)N2C(=O)c1ccncc1`, the activity change, negative = inhibition is -2.54% in experiment [1]; -5.19% in experiment [2]; -1.18% in experiment [3]; -6.42% in experiment [4]; -2.76% in experiment [5].
Turning to `N#Cc1ccc(COC[C@H]2O[C@@H](n3c(NCc4ccc(Cl)c(Cl)c4)nc4c(N)ncnc43)[C@H](O)[C@@H]2O)cc1`, the activity change, negative = inhibition in experiment [1] is -18.2%; in experiment [2], -1.44%; in experiment [3] it was -43.3%; in experiment [4] it was -90.7%; in experiment [5] it was -72.9%.
Taken in the same sequence, the figures for `C=Cc1ccc(Cn2nc3n(Cc4ccc(F)cc4)c(=O)c4ccccc4n3c2=O)cc1` were 2.99%, 4.31%, 6.4%, -5.63% and 1.36%.
Regarding `CNC(=O)[C@@H]1C[C@@H](O)CN1C1CCN(C(=O)C2(c3ccccc3)CC2)CC1`, the activity change, negative = inhibition is -1.69% in experiment [1]; 0.047% in experiment [2]; 0.907% in experiment [3]; -0.485% in experiment [4]; -11.4% in experiment [5].
As for `CO[C@H]1C(=O)N(C(C)C)[C@H]1C1CCN(C(=O)C(C)C)CC1`, the activity change, negative = inhibition in experiment [1] is -6.62%; in experiment [2], -3.99%; in experiment [3], -0.735%; in experiment [4] it was -3.82%; in experiment [5], -0.375%.
`CCC(C)N1C(=O)c2cc3occc3n2CC1(C)C(=O)NC1CCCCCC1` (stereo not given): the activity change, negative = inhibition is -2.22% in experiment [1]; 2.32% in experiment [2]; -2.15% in experiment [3]; 0.63% in experiment [4]; -7.01% in experiment [5].
Taken in the same sequence, the figures for `O=C(c1nc2ccccc2[nH]1)N1CCNc2cnc(Nc3ccc(-n4ccnc4)cc3)nc2C1` were -38%, -25.8%, -40%, -27.3% and -17.5%.
Turning to `CC1(C(=O)NC2CCCCC2)Cn2c(ccc2-c2ccco2)C(=O)N1C1CCCc2ccccc21` (stereo not given), the activity change, negative = inhibition is -7.9% in experiment [1]; 1% in experiment [2]; -3.79% in experiment [3]; -13.4% in experiment [4]; -7.07% in experiment [5].
For `C=C1CCC2C(C)(C)CC(=O)CC2(C)C1CCC(C)CCOC(C)=O` (stereo not given), the activity change, negative = inhibition is 0% in experiment [1]; 9.12% in experiment [2]; 9.53% in experiment [3]; -9.44% in experiment [4]; -0.303% in experiment [5].
Consider `N#Cc1ccc(S(=O)(=O)N2CCC(C3CCNC3)CC2)cc1` (stereo not given), for which the activity change, negative = inhibition in experiment [1] was -3.67%; in experiment [2], -3.76%; in experiment [3], -4.58%; in experiment [4], -11.3%; in experiment [5], -10.3%.
Take `CC1CCN(S(=O)(=O)c2ccc3c(ccn3CCC(=O)N3CC(C)CC(C)C3)c2)CC1` (stereo not given): the activity change, negative = inhibition in experiment [1] is -0.442%; in experiment [2], 3.16%; in experiment [3], 2.88%; in experiment [4], -12.8%; in experiment [5], 0.866%.
Take `CC(C)NC(=O)Cn1ccc2cc(S(=O)(=O)N3CCCCC3)ccc21`: the activity change, negative = inhibition turned out to be 7.68% in experiment [1]; 0.796% in experiment [2]; 8.49% in experiment [3]; 5.86% in experiment [4]; 4.26% in experiment [5].
Taken in the same sequence, the figures for `Cc1ccc2[nH]c(CN3CCC(c4cccc(C#N)c4)CC3)cc(=O)c2c1` were -8.94%, 0.248%, -6%, -26.4% and -32.4%.
As for `COc1ccc(OC)c(S(=O)(=O)N2CCCC(Cc3ncc(C)n3CC3CC3)C2)c1` (stereo not given), the activity change, negative = inhibition was -3.88% in experiment [1]; -4.78% in experiment [2]; 6.12% in experiment [3]; -9.53% in experiment [4]; -0.355% in experiment [5].
